Reference: the antibiotic and cytotoxicity screens of Wong et al. (2023)
The other results are listed elsewhere or left out.

Each molecule was assayed on HSkMC (human skeletal muscle cells) (assay: cytotoxicity call (relative viability < 0.9)). Conditions: 10 µM.

| Structure (SMILES) | cytotoxicity call |
| --- | --- |
| C[C@@H]1CN([C@H](C)CO)C(=O)Cc2cc(NC(=O)C3CC3)ccc2O[C@H]1CN(C)Cc1ccc(Oc2ccccc2)cc1 | inactive |
| O=C1C[C@]2(c3ccc([N+](=O)[O-])cc3)C(=O)N(CCN3CCOCC3)c3cc(CO)ccc3[C@H]2N1C1CCCCC1 | inactive |
| Cc1noc(C)c1S(=O)(=O)Nc1ccc2c(c1)CC(=O)N([C@H](C)CO)C[C@H](C)[C@H](CN(C)Cc1ccccc1)O2 | inactive |
| COc1ccc(NC(=O)N(C)C[C@H]2OCCCC[C@H](C)Oc3ccc(NC(=O)C4CCCCC4)cc3C(=O)N([C@H](C)CO)C[C@@H]2C)cc1 | inactive |
| O=C(C[C@H]1C[C@H]2c3cc(NC(=O)Cc4ccncc4)ccc3O[C@H]2[C@H](CO)O1)NCc1cccc(F)c1 | inactive |
| Cc1ccc(C(N)=O)cc1N | inactive |
| COc1ccc(NC(=O)Nc2ccc3c(c2)C(=O)N([C@H](C)CO)C[C@@H](C)[C@H](CN(C)Cc2ccc(C(F)(F)F)cc2)O3)cc1 | inactive |
| NS(=O)(=O)c1cc2c(cc1Cl)N=C(CSCc1ccccc1)NS2(=O)=O | inactive |
| O=S(=O)(C1CCCCC1)C1CNC1 | inactive |
| C[C@@H]1CN([C@@H](C)CO)C(=O)c2cc(NC(=O)c3ccccc3)ccc2O[C@@H](C)CCCCO[C@@H]1CN(C)Cc1ccc(C(=O)O)cc1 | inactive |
| C[C@H](CO)N1C[C@H](C)[C@H](CN(C)S(=O)(=O)c2cn(C)cn2)OCc2cn(nn2)CCCC1=O | inactive |
| O=C(C[C@@H]1CC[C@@H]2[C@H](COC[C@H](O)CN2S(=O)(=O)c2ccccc2)O1)N[C@H]1CCN(Cc2ccccc2)C1 | inactive |
| CO[C@H]1CN(C)C(=O)c2cc(NS(C)(=O)=O)ccc2OC[C@@H](C)N(C(=O)CN(C)C)C[C@@H]1C | inactive |
| COc1ccc(NC(=O)N(C)C[C@@H]2Oc3c(NS(=O)(=O)c4cn(C)cn4)cccc3C(=O)N([C@H](C)CO)C[C@H]2C)cc1 | inactive |
| CC(C)NC(=O)Nc1ccc2c(c1)C(=O)N([C@H](C)CO)C[C@@H](C)[C@@H](CN(C)S(=O)(=O)c1cn(C)cn1)OCCCC[C@H](C)O2 | inactive |
| CCO[C@@H]1OC(C(=O)N2CCN(Cc3ccccc3)CC2)=C[C@H](C)[C@H]1CCCOC(=O)NCCCCCC(=O)NO | inactive |
| C[C@@H]1CCCCO[C@H](CN(C)Cc2ccc(C(F)(F)F)cc2)[C@H](C)CN([C@@H](C)CO)C(=O)c2cc(NC(=O)NC3CCCCC3)ccc2O1 | active |
| CN(C)CCCNC(=O)C[C@H]1CC[C@@H]2[C@H](COc3ccc(NS(C)(=O)=O)cc3C(=O)N2C)O1 | inactive |
| COc1ccc(NC(=O)Nc2ccc3c(c2)CC(=O)N([C@@H](C)CO)C[C@@H](C)[C@@H](CN(C)Cc2ccc(-c4ccccc4)cc2)O3)cc1 | inactive |
| C[C@@H]1CN([C@H](C)CO)C(=O)Cc2cc(NC(=O)CCC(F)(F)F)ccc2O[C@H]1CN(C)C(=O)Nc1cccc2ccccc12 | inactive |

| Structure (SMILES) | cytotoxicity call |
| --- | --- |
| COc1ccc(S(=O)(=O)Nc2ccc3c(c2)CC(=O)N([C@H](C)CO)C[C@@H](C)[C@@H](CN(C)C(=O)NC(C)C)O3)cc1 | inactive |
| COc1ccc(S(=O)(=O)N(C)C[C@H]2Oc3ncc(-c4ccncc4)cc3C(=O)N([C@H](C)CO)C[C@@H]2C)cc1 | inactive |
| C[C@@H]1CCCCO[C@@H](CN(C)S(C)(=O)=O)[C@@H](C)CN([C@H](C)CO)C(=O)c2cc(N(C)C)ccc2O1 | inactive |
| CO[C@H]1CN(C)C(=O)c2ccc(NC(=O)C3CCOCC3)cc2OC[C@H](C)N(Cc2cccnc2)C[C@H]1C | inactive |
| C[C@@H]1COC(=O)[C@H](Cc2ccc(F)cc2)CC=CC[C@@H](CC(=O)N[C@@H](CO)Cc2ccccc2)C(=O)N1 | inactive |
| Cc1noc(C)c1S(=O)(=O)N(C)C[C@@H]1Oc2ccc(NC(=O)NC3CCCCC3)cc2CC(=O)N([C@H](C)CO)C[C@H]1C | inactive |
| C[C@@H]1CN([C@H](C)CO)C(=O)c2cc(NS(=O)(=O)c3ccccc3)ccc2O[C@@H](C)CCCCO[C@H]1CN(C)C(=O)NC1CCCCC1 | inactive |
| Cc1noc(C)c1NC(=O)N(C)C[C@H]1OCCCC[C@H](C)Oc2ccc(NS(=O)(=O)c3cccs3)cc2C(=O)N([C@@H](C)CO)C[C@@H]1C | inactive |
| C=CCSc1n[nH]c(=O)[nH]c1=O | inactive |
| C[C@@H]1CCCCO[C@H](CN(C)S(C)(=O)=O)[C@H](C)CN([C@H](C)CO)C(=O)c2cc(N(C)C)ccc2O1 | inactive |
| C[C@H](CO)N1C[C@H](C)[C@H](CN(C)Cc2cccc(C(F)(F)F)c2)Oc2ncc(-c3ccccc3)cc2C1=O | inactive |
| C=C1C(=O)O[C@@H]2/C=C(\CO[C@@H]3O[C@H](CO)[C@@H](O)[C@H](O)[C@H]3O)CC/C=C3\C[C@H](OC3=O)[C@@H]12 | inactive |
| C[C@H](CO)N1C[C@H](C)[C@H](CN(C)C(=O)Nc2ccc3c(c2)OCO3)Oc2ccc(NC(=O)C3CC3)cc2CC1=O | inactive |
| C[C@H]1CCCCO[C@@H](CN(C)CC2CCCCC2)[C@@H](C)CN([C@@H](C)CO)C(=O)c2cc(NC(=O)NC3CCCCC3)ccc2O1 | inactive |
| C[C@@H]1CN([C@@H](C)CO)S(=O)(=O)c2ccc(C#CC3CC3)cc2O[C@H]1CN(C)Cc1cccc(F)c1 | inactive |
| C[C@@H]1CN([C@@H](C)CO)C(=O)c2cc(C#CCN(C)C)cnc2O[C@@H]1CN(C)C(=O)c1ccc2c(c1)OCO2 | inactive |
| COc1ccc(CN(C)C[C@@H]2OCCCC[C@H](C)Oc3ccc(NS(=O)(=O)c4ccc(OC)cc4)cc3C(=O)N([C@H](C)CO)C[C@H]2C)cc1 | inactive |
| C[C@H]1CN([C@@H](C)CO)C(=O)c2cc(NC(=O)CCCCCC(=O)Nc3ccccc3N)ccc2O[C@@H]1CN(C)C(=O)Nc1ccc(F)cc1 | inactive |
| C[C@H](CO)N1C[C@H](C)[C@@H](CN(C)C)OCCCC[C@H](C)Oc2ccc(NC(=O)CCCN(C)C)cc2C1=O | inactive |
| C[C@@H]1CN([C@H](C)CO)C(=O)Cc2cc(NS(C)(=O)=O)ccc2O[C@H]1CN(C)Cc1ccc(C(=O)O)cc1 | inactive |
